Results reported in the supplement of paper PMC3334620.
Over roughly 33,000 sequences, “E-score (-0.5 to 0.5)” has its median near -0.056; the highest 2% begin near 0.38. Some of the results follow.

Each sequence was assayed against Stb4 (UniProt P50104) (assay: PBM E-score (8-mer binding enrichment) (E-score (-0.5 to 0.5)); higher = stronger / more preferred TF binding; most listed sequences are background and not binding sites). Conditions: protein concentration: 200 nM; construct: GST-DNA-binding domain.
In short: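 Detection of bound protein used fluorescent anti-GST, with scans normalised by masliner. The proteins were GST-tagged yeast transcription factors applied at about 100-200 nM to universal all-10-mer Agilent arrays made double-stranded by primer extension. Each ungapped eight-base word, pooled with its reverse complement, was scored with an E-score from the Universal PBM Analysis Suite.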
In the case of CCAATAGC, the “PBM E-score” value is reported as -0.176.
CTGGACAG was tested, and the “PBM E-score” value was -0.0848.
With ATTAATTG the “PBM E-score” value was -0.0146.
For ACGTTCCC, the “PBM E-score” value was 0.11.
In the case of CGTCCAAA, the “PBM E-score” value is reported as 0.0827.
In the case of AACTTGTG, the “PBM E-score” value is reported as -0.0682.
AGAATCTA was tested, and the “PBM E-score” value was -0.117.
With ATGGGAAG the “PBM E-score” value was -0.0949.
With AAACGATA the “PBM E-score” value was -0.0983.
In the case of ATTTTAGG, the “PBM E-score” value is reported as -0.171.
ATAGCGTA was tested, and the “PBM E-score” value was 0.0356.
In the case of CTTGCAAG, the “PBM E-score” value is reported as 0.16.
In the case of TACCCTGA, the “PBM E-score” value is reported as -0.169.
ATATGTTA was tested, and the “PBM E-score” value was -0.101.
In the case of CTGACGAC, the “PBM E-score” value is reported as -0.1.
In the case of ACAGCATC, the “PBM E-score” value is reported as -0.102.
In the case of AATGAGGA, the “PBM E-score” value is reported as -0.193.
With AAGTACTG the “PBM E-score” value was -0.0747.
GTGCCCGA was tested, and the “PBM E-score” value was 0.22.
With ACACGCCG the “PBM E-score” value was 0.288.
With AAACACAA the “PBM E-score” value was -0.103.
With ACATCCCG the “PBM E-score” value was 0.369.
AGACGCGA was tested, and the “PBM E-score” value was -0.0481.
For CTTGCGTA, the “PBM E-score” value was -0.171.
For CACCGACA, the “PBM E-score” value was 0.0883.
With AGAGTGAG the “PBM E-score” value was -0.228.
In the case of AACGGGTA, the “PBM E-score” value is reported as 0.349.
For CGGAGGAC, the “PBM E-score” value was 0.206.
With AAAAGTAG the “PBM E-score” value was -0.1.
ACTTGTCA was tested, and the “PBM E-score” value was -0.00102.
In the case of AGCAAGAC, the “PBM E-score” value is reported as -0.00087.
CCAGACTC was tested, and the “PBM E-score” value was -0.0717.
In the case of GTATGGTA, the “PBM E-score” value is reported as -0.241.
For TATAGTCA, the “PBM E-score” value was -0.232.
AAGCTGAG was tested, and the “PBM E-score” value was -0.167.
In the case of CTAAGAGA, the “PBM E-score” value is reported as -0.179.
In the case of CGAGAACC, the “PBM E-score” value is reported as 0.266.
CCCCTAGG was tested, and the “PBM E-score” value was -0.135.
In the case of GAGAGCAC, the “PBM E-score” value is reported as 0.0715.
GACAGTAC was tested, and the “PBM E-score” value was 0.0451.
In the case of GCAGAAAC, the “PBM E-score” value is reported as -0.138.
For AGATCGCG, the “PBM E-score” value was 0.0394.
AAGTTACG was tested, and the “PBM E-score” value was 0.023.
With ACTAAAAG the “PBM E-score” value was -0.00624.
For GACACGCA, the “PBM E-score” value was -0.0418.
GCTAGATA was tested, and the “PBM E-score” value was -0.118.
With CACCACTA the “PBM E-score” value was -0.0752.
With GTAGATAC the “PBM E-score” value was -0.172.
With CAGGACCC the “PBM E-score” value was -0.0217.
With CGCAGTGA the “PBM E-score” value was -0.0931.
For ATTGTAAC, the “PBM E-score” value was -0.0318.
CCACGAAC was tested, and the “PBM E-score” value was -0.155.
In the case of ACATGACG, the “PBM E-score” value is reported as -0.178.
With CCAGGACG the “PBM E-score” value was -0.18.
GCAGGTCC was tested, and the “PBM E-score” value was -0.0506.
In the case of CTTAGTTC, the “PBM E-score” value is reported as -0.0641.
For ACCGTTCT, the “PBM E-score” value was -0.0204.
With GAATCTAC the “PBM E-score” value was -0.0991.
GAGTGCAA was tested, and the “PBM E-score” value was 0.0454.
For AAGACGGC, the “PBM E-score” value was -0.0316.
In the case of TCAAAGGA, the “PBM E-score” value is reported as -0.205.
With ATGTTATG the “PBM E-score” value was 0.0361.
With ACCACAGT the “PBM E-score” value was -0.0147.
With CGCAATGC the “PBM E-score” value was 0.0575.
With AGAGCTTG the “PBM E-score” value was -0.238.
In the case of ATTCACAG, the “PBM E-score” value is reported as -0.109.
ATGAGAGG was tested, and the “PBM E-score” value was -0.118.
With AGCCCGTA the “PBM E-score” value was -0.159.
With ACGAAGAA the “PBM E-score” value was -0.0766.
GCCACTCC was tested, and the “PBM E-score” value was 0.00528.
For AACGTTTA, the “PBM E-score” value was -0.0617.
With GTACGATA the “PBM E-score” value was -0.357.
For ACGCCGGA, the “PBM E-score” value was 0.29.
With ACGGAATA the “PBM E-score” value was 0.323.
In the case of AAACACCC, the “PBM E-score” value is reported as 0.167.
With CCCGTCGC the “PBM E-score” value was -0.00272.
In the case of CAAAATTA, the “PBM E-score” value is reported as 0.0863.
In the case of CTGCTTCA, the “PBM E-score” value is reported as -0.269.
CCCCAAGG was tested, and the “PBM E-score” value was -0.261.
With CGTCATAA the “PBM E-score” value was 0.077.
AAACATGT was tested, and the “PBM E-score” value was -0.00346.
CCAACTGA was tested, and the “PBM E-score” value was -0.189.
In the case of GTTGCACA, the “PBM E-score” value is reported as -0.207.
AAATCCAC was tested, and the “PBM E-score” value was -0.177.
In the case of ATTTTTTC, the “PBM E-score” value is reported as 0.278.
ATATACTG was tested, and the “PBM E-score” value was 0.0269.
